Assay results reported in PubChem BioAssay AID1159614 (National Center for Advancing Translational Sciences (NCATS), 2016).
Out of some 45,000 compounds screened, about 65 (0.1%) were called active. Calls come from the whole dose curve; as a rule, active = well fitted activation curve with a large enough effect; inconclusive = small, poorly fitted or top-dose-only effect; inactive = no such curve, though single readings can be large or run the other way. The list shows a part of the results.

Each molecule was assayed against Galactocerebrosidase (Homo sapiens) (UniProt P54803) (assay: A Novel Cell-Based Assay to Identify Small Molecules for B -Galactocerebrosidase). Settings: 145M-Twi-hGALC-G270D cells (Twitcher mouse brain line with human GALC G270D), HMU-beta-Gal fluorescence, 48 h; series mostly up to 57.5 µM; activation: at the top concentration.
UniProt P54803, sequence (P54803 whole entry, looked up): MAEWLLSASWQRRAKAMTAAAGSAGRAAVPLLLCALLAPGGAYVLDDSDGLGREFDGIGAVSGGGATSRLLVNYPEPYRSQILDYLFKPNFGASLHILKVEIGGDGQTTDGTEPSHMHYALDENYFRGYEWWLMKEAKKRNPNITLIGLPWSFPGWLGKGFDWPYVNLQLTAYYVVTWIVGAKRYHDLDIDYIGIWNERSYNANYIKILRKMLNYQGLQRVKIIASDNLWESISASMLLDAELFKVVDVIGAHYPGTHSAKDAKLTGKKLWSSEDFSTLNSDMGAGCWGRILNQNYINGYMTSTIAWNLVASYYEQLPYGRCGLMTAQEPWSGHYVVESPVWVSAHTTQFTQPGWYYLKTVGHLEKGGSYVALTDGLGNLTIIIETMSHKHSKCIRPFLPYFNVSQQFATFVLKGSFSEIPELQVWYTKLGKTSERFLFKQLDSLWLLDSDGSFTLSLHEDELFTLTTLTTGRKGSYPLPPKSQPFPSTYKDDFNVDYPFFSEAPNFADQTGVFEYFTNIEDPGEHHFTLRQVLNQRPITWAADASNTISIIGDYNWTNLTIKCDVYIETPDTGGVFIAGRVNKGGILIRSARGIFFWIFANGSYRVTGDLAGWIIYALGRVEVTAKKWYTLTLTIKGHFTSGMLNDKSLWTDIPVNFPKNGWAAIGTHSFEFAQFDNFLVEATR
How it was run: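 Brain-derived Twitcher mouse 145M-Twi cells stably expressing human GALC-G270D or wild-type GALC, treated live, then residual GALC activity read by fluorescence of HMU-b-Gal substrate (0.1 mM final) in citrate-phosphate buffer pH 5.2 with sodium taurocholate. Signal increase indicates enhancement.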
Note: 0% is about no effect; nearly all actives have a fitted effect of over 65% in size.

activation, inactive:
COc1ccc(CNC(=O)Cn2ncc3c([nH]c4ccccc43)c2=O)cc1 -11.2%
O=C(NCc1ccc(F)cc1)c1ccc(Nc2nc3ccccc3n3nnnc23)cc1 -15.4%
COc1ccccc1N1CCN(c2cc(C)nc3nc(-c4ccc(C)cc4)nn23)CC1 -5.77%
Cc1c(C(=O)Nc2ccccc2F)sc2ncnc(N(C)C3CCCCC3)c12 1.6%
COc1cc(OC)c(NC(=O)c2cc(C)nc3c2c(C)nn3-c2ccc(C)cc2)cc1Cl -4.41%
COc1ccc(CCNC(=O)c2ccc3c(c2)N(Cc2ccc(Cl)cc2)C(=O)c2ccccc2S3)cc1OC -1.6%
CCOc1ccc(-c2nn(CC(=O)NC3CCCC3)c3c2cnc2ccc(C)cc23)cc1 -24%
Cc1ccc(NC(=O)CCN2CCN(CCO)CC2)cc1C -7.92%
Cc1ccc(S(=O)(=O)CC(=O)Nc2sc3c(c2C(N)=O)CCCC3)cc1 -20%
Cc1ccccc1Nc1c(-c2ccc(Br)o2)nc2ccc(Cl)cn12 -13.2%
CCc1ccc(NC(=O)Cc2c(C(=O)O)c(C)cn2C)cc1 -5.1%
CC(C)CCNC(=O)Nc1ccc2c(c1)N(Cc1ccccc1)C(=O)c1ccccc1S2 5.02%
CC(=O)c1ccc(NC(=O)Cn2c(-n3nc(C)cc3C)nc(C)c(C)c2=O)cc1 -12.1%
CCOC(=O)Cc1ccc(NC(=O)N2CCC(CN3CCCCCC3)CC2)cc1 -15.3%
CCN(CC)c1cc2c(cc1F)c(=O)c(S(=O)(=O)c1ccc(OC)cc1)cn2Cc1ccccc1 -13.6%
CCOc1ccccc1Nc1nnc(-c2cc3cc(OC)ccc3oc2=O)s1 -13.6%
CCCCN(CC)C(=O)c1cc2c(=O)n3cccc(C)c3nc2n1C 1.84%
CCc1ccc(Oc2c(C(F)(F)F)oc3c(CN4CCC(C)CC4)c(O)ccc3c2=O)cc1 -19.9%
CCN(Cc1nc(-c2ccc(OC)cc2)oc1C)S(=O)(=O)c1ccc(C)cc1 -0.795%
Cc1ccc(NC(=O)CN2CCSc3ccc(S(=O)(=O)N4CCCC4)cc32)cc1 -35.6%
Cc1c(CCNC(=O)c2ccco2)sc2nc(-c3ccc(F)cc3)nn12 -5.16%
CCOc1ccc(S(=O)(=O)N(CC(=O)NCc2ccccc2OC)c2ccccc2)cc1 -9.22%
CCCCN(CC)CCCNC(=O)Cn1ncc2c3ccccc3n(C)c2c1=O 1.12%
COc1cccc(CSc2nc3n(n2)C(CC(C)C)C(C(=O)Nc2ccccc2OC)=C(C)N3)c1 (configuration not stated) 3.27%
COc1ccc(C(=O)N2CCC(C(=O)Nc3ccc(Cl)cc3)CC2)cc1 -10.9%
Cc1ccc(/C(=C\CN2CCCC2)c2ccccn2)cc1 -10.6%
CCOc1ccc(OCC)c(NC(=O)Cn2nc(CC)n3c(cc4sccc43)c2=O)c1 -16.1%
Cc1cc(=O)n2nc(N(C)CC(=O)NCc3cccc(Br)c3)sc2n1 -17.5%
CC(C)CCn1c(=O)c2sccc2n2c(CCCC(=O)NCCc3ccccc3)nnc12 -16.5%
O=C1CC(c2ccccc2)c2c(n3ncnc3[nH]c2=O)N1 (configuration not stated) -11.3%
CCc1cccc(NC(=O)Cn2c(=O)n(CC(=O)NCCc3ccccc3)c(=O)c3ccccc32)c1 -0.388%
Cc1nc2ccc(S(=O)(=O)N(CC(=O)Nc3cccc(F)c3)Cc3ccccc3)cc2s1 -5.66%
COc1ccc(NC(=O)Cn2c(SCc3ccc(F)cc3)nc3cccnc32)cc1OC -9.64%
CC(C)N(C)C1CCN(S(=O)(=O)c2ccc3[nH]c(=O)ccc3c2)CC1 -15%
OC[C@H]1O[C@@H](OCCc2ccc(O)cc2)[C@H](O)[C@@H](O)[C@H]1O -2.67%
COc1ccccc1C(=O)N1CCC(c2noc(-c3ccc(S(=O)(=O)N4CCCC4)cc3)n2)CC1 -16.9%
COc1cccc(CNC(=O)c2oc3c(c2C)-c2nn(Cc4cccc(Cl)c4)cc2CC3)c1OC -10.9%
C[C@@H](O)[C@H](N)C(=O)O -9.57% [at 23.8 µM]
O=C(NCCc1ccc(Cl)cc1)c1ccc(CS(=O)Cc2ccccc2Cl)o1 (configuration not stated) -14.7%
Cc1ccc(C)c(CNC(=O)CCn2cccn2)c1 -34.5%
O=C(Nc1ccc2nc(SCC(=O)N3CCCC3)sc2c1)c1cccc(Br)c1 -2.93%
Cc1cc(C)cc(N2C(=O)CSC23C(=O)N(CC(=O)Nc2ccc(F)cc2F)c2ccccc23)c1 (configuration not stated) -19%
Cc1cccc(NC(=O)C2CCN(c3nc4ccccc4[nH]3)CC2)c1C 5.44%
CCCCc1nn2c(=O)cc(COC(=O)c3ccc(NC(=O)CCc4ccccc4)cc3)nc2s1 -16.4%
CCOCCCN1C(=O)c2[nH]nc(-c3ccccc3O)c2C1c1ccc(CC)cc1 (configuration not stated) -20%
CCOC(=O)c1oc2c(c1C)-c1nn(Cc3c(F)cccc3Cl)cc1CC2 -10.2%
COc1ccccc1NC(=O)c1ccc2oc(=O)c(S(=O)(=O)c3ccccc3)cc2c1 -19.9%
COc1ccc(C(=O)NCCn2cc(SCc3cc(C)ccc3C)c3ccccc32)cc1 10.2%
Cc1ccc(C(C)C)c(OCCCn2c(=O)oc3ccccc32)c1 -3.88%
CC(CNS(=O)(=O)c1ccc2c(c1)CC(=O)N2C)c1ccccc1 (configuration not stated) -18.1%
CCOC(=O)c1c(C)oc2nc(C)nc(NCCCN3CCN(c4ccc(F)cc4)CC3)c12 -15.1%
CCOc1ccc(C2c3c(oc4ccccc4c3=O)C(=O)N2c2nnc(C)s2)cc1OC (configuration not stated) -36.1%
Cc1ccccc1CNC(=O)c1cc2cc(S(=O)(=O)N3CCCCC3)ccc2n1C -3.34%
COc1ccc(-n2c(-c3ccco3)nc3c(cnn3-c3ccccc3C)c2=O)cc1 9.94%
Cc1cc(N2CCN(c3cccc(C)c3C)CC2)n2nc(C)c(-c3ccc(Cl)cc3)c2n1 0.402%
Cc1ccc(S(=O)(=O)n2nc(-c3ccco3)nc2NCc2ccccc2Cl)cc1 -30.4%
CCn1c(=O)cc(OCC(=O)N2CCN(c3ccccc3OC)CC2)c2ccccc21 -20.9%
Cc1cccc(Cn2cnc3c(cnn3-c3ccc(Cl)cc3)c2=O)c1 -9.53%
Cc1cc(C)n2c(Nc3ccccc3)c(-c3ccccc3)nc2n1 -12.4%
Cc1ccc(CN2CCN(C3CCN(C(=O)Nc4ccccc4C(F)(F)F)CC3)C(=O)C2=O)cc1 -6.33%
Cc1cc(C)c2oc(C(=O)Nc3ccc(S(=O)(=O)N4CCC(C)CC4)cc3)cc(=O)c2c1 -8.05%
COc1ccc(Cl)cc1NC(=O)Cn1cnc2c1c(=O)n(C)c(=O)n2C -17.4%
Cc1ccc(CNC(=O)CCCn2c(=O)c3ccccc3n(Cc3ccccc3C)c2=O)cc1 -4.66%
CC(NC(=O)c1ccc2c(c1)N(Cc1ccc(Cl)cc1)C(=O)c1ccccc1S2=O)c1ccccc1 (configuration not stated) 4.84%
CC(C)NC(=O)C1CCCN(c2ncnc3c2nc2n3CCCCC2)C1 (configuration not stated) -39.8%
COc1cccc(NC(=O)C2CCN(c3nc4ccccc4nc3C(F)(F)F)CC2)c1 -19.1%
Cc1cccc(C)c1NC(=O)CCCN1C(=O)CCn2nc(-c3cn(C)c4ccccc34)cc21 -14.5%
Cc1cccc(Cn2nnc(C(=O)Nc3cc(C)ccc3C)c2N)c1 -20%
COc1cc(OC)c(NC(=O)Nc2c(C)n(C)n(-c3ccccc3)c2=O)cc1Cl -8.58%
CCc1cc2c(-c3ccccc3)cc(=O)oc2c2c1OCN(Cc1ccc(F)cc1)C2 -21.9%
O=C(NC1CC(=O)N(c2cccc(F)c2)C1)C(c1ccccc1)c1ccccc1 (configuration not stated) -1.91%
CCCN1CCN(c2cc3c(cc2F)c(=O)c(S(=O)(=O)c2ccc(Cl)cc2)cn3C)CC1 -14.6%
COc1ccc(C(=O)NCC(c2ccc(N(C)C)cc2)N2CCc3ccccc32)cc1 (configuration not stated) -13.9%
Cn1c(=O)n(C)c2cc(N3CCOCC3)c(NC(=O)c3c(F)cccc3F)cc21 -14%
Cc1cc(C)c2sc(NC(=O)c3ccc(S(=O)(=O)N4CCOCC4)cc3)nc2c1 -4.49%
CCC1C(=O)OCC1Cc1cncn1C (configuration not stated) -8.96%
CCC(Oc1ccccc1)C(=O)Nc1ccc(OCc2cc(=O)n3ccccc3n2)cc1 (configuration not stated) -5.48%
CCOc1ccc(CNC(=O)C2Cc3ccccc3N2C(=O)CC)cc1 (configuration not stated) -21.6%
COC(=O)c1ccccc1NC(=O)c1ccc2c(=O)n3c(nc2c1)CCCCC3 -4.41%
O=S(=O)(c1ccc(Cl)cc1)c1nc(-c2ccccc2)oc1N1CCN(c2ccccc2)CC1 -13.9%
O=C(Nc1ccc(Br)cc1)c1cccc(C(=O)Nc2ccc(Br)cc2)c1 -11.5%
NC(=O)c1ncn([C@@H]2O[C@H](CO)[C@@H](O)[C@H]2O)c1O 14.6%
O=C(CN1C=NS(=O)(=O)c2ccc(C(F)(F)F)cc21)Nc1cccc(C(F)(F)F)c1 2.25%
COc1ccc(Nc2c3c(nc4ccc(NC(=O)/C=C/c5cccc(OC)c5OC)cc24)CCCC3)cc1OC -23.5%
CCOC(=O)c1cc(NC(=O)c2ccc(Cl)cc2)c(=O)n2c1oc1ccccc12 0.877%
Cc1ccc(CNC(=O)Cn2c(=O)n(Cc3ccccc3)c(=O)c3sc4ccccc4c32)cc1 -6.47%
Cc1ccc(CN(Cc2cccn2-c2nnc(N3CCCC3=O)s2)C(=O)Nc2ccccc2C(F)(F)F)cc1 -6.94%
COc1ccccc1N1CCN(C(=O)CN2C(=O)COc3ccc(S(=O)(=O)N4CCCC4)cc32)CC1 -1.76%
CCOc1ccc(C2CC(=O)c3c([nH]c(C(=O)OC4CCC(C)CC4)c3C)C2)cc1 (configuration not stated) -20.2%
CCc1cccc(NC(=O)CSc2nc3ccsc3c(=O)n2CC)c1 -15.5%
CCn1c(/C(C#N)=C/c2ccccc2Cl)nc2ccccc21 -23.6%
CCc1nc(SCc2cc(=O)c3cc(C)ccc3[nH]2)n[nH]1 -4.78%
Cc1ccc(C(C)C)cc2c(C)ccc1-2 -16.8%
COc1ccc(CNC(=O)c2cccc(N3CCCS3(=O)=O)c2)cc1OC -16%
Cc1c(C(=O)N(Cc2cccc(F)c2)C2CCS(=O)(=O)C2)oc2cc(Br)ccc12 (configuration not stated) -22.5%
O=c1cc(-c2ccc(F)cc2)nc(SCc2nc(-c3cccc(C(F)(F)F)c3)no2)[nH]1 -4.59%
COc1ccc(NC(=O)CN2C(=O)C3(SCC(=O)N3c3ccccc3)c3ccccc32)cc1Cl (configuration not stated) -16.6%
